Data from US20140294758A1 (published 2014).

Columns and labels:
[1] = target: T1, high affinity IL2 receptor on CTLL-2 mouse T cells (mouse, UniProt P01590 22-268; P16297 27-539; P34902 23-369); experiment: cell-based or functional assay
T1 sequence (looked up) 1: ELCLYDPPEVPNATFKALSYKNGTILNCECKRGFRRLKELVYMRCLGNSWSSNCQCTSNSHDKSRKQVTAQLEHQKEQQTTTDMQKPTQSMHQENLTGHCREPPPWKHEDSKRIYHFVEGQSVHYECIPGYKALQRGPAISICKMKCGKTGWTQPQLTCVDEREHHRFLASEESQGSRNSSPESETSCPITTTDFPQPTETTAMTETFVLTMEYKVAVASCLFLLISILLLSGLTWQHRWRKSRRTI
T1 sequence (looked up) 2: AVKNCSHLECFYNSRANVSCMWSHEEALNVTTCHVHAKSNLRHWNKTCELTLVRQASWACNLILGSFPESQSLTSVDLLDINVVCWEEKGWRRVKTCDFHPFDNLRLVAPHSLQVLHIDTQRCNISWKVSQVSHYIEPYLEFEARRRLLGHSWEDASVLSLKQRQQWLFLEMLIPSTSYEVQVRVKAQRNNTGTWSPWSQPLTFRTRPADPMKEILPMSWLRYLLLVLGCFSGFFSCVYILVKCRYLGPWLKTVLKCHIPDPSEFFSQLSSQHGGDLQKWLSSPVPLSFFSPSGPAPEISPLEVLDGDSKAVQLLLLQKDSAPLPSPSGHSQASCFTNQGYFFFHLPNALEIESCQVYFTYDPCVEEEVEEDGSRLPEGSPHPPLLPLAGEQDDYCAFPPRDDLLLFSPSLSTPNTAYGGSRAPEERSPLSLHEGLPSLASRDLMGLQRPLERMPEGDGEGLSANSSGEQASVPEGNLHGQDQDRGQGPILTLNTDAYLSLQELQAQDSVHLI
T1 sequence (looked up) 3: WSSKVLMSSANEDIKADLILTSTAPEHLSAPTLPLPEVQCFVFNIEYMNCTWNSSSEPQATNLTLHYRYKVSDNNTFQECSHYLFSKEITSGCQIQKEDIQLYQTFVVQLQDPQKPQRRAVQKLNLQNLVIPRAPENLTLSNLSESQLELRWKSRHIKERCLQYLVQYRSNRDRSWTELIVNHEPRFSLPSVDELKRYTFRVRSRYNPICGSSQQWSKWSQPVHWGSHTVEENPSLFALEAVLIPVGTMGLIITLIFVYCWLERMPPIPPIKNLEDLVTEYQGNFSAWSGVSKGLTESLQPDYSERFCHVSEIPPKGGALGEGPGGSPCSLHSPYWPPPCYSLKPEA

[2] = target: T2, intermediate affinity IL2 receptor on TF-1β cells (UniProt P14784 27-551; P31785 23-369); experiment: cell-based or functional assay
T2 sequence (looked up) 1: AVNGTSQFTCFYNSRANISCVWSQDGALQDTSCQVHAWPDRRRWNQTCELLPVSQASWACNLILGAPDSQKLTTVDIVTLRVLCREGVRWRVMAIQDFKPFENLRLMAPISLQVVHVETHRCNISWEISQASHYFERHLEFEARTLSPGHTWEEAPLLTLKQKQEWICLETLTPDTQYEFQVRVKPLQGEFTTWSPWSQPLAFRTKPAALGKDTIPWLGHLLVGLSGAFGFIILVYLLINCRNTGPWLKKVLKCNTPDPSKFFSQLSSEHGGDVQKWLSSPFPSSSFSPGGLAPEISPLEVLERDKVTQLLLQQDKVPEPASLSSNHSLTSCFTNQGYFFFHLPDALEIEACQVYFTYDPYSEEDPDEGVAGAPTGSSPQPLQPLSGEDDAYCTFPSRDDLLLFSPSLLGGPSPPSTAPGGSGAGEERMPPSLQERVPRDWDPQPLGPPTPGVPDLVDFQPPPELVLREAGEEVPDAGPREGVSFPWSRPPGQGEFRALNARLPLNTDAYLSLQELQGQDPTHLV
T2 sequence (looked up) 2: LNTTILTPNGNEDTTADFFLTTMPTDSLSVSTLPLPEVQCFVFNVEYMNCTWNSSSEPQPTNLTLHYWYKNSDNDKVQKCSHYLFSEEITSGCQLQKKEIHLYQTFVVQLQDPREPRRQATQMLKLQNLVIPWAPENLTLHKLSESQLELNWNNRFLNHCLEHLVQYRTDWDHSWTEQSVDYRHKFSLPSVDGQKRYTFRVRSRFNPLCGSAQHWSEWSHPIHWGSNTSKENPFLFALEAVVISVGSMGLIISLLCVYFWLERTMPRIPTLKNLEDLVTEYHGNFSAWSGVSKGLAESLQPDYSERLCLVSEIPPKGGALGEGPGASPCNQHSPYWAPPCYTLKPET

Relative Activity High aff/Inter Aff (high affinity part) [1]: 1 | Selectivity for High Affinity Receptor [1]: 1.25 | Relative Activity High aff/Inter Aff (intermediate affinity part) [2]: 0.8 | TF-1β (Int aff) ED50 [2]: 10 ng/mL
B1: 14.18-IL2-L containing SEQ ID NO: 3 (other)
light: EIVMTQSPATLSVSPGERATLSCRSSQSLVHRNGNTYLHWYLQKPGQSPKLLIHKVSNRFSGVPDRFSGSGSGTDFTLKISRVEAEDLGVYFCSQSTHVPPLTFGAGTKLELKRTVAAPSVFIFPPSDEQLKSGTASVVCLLNNFYPREAKVQWKVDNALQSGNSQESVTEQDSKDSTYSLSSTLTLSKADYEKHKVYACEVTHQGLSSPVTKSFNRGECQRVD[about 150 residues not listed]
VH: EVQLLQSGPELEKPGASVMISCKASGSSFTGYNMNWVRQNIGKSLEWIGAIDPYYGGTSYNQKFKGRATLTVDKSSSTAYMHLKSLTSEDSAVYYCVSGMEYWGQGTSVTVSS
